In the RNAGym collection of RNA variant scans (doi:10.1093/nar/gkz1192):
Read counts are not given, so values of variants with three or more changes are uncertain.

B1: CPEB3 Ribozyme (parent)
chain: UAACAGGGGGCCACAGCAGAAGCGUUCACGUCGCAGCCCCUGUCAGAUUCUGGUGAAUCUGCGAAUUCUGCUGUAUAUCUC

Variants of: B1
Assay: self-cleavage, relative activity (ratio to wild type); higher = more cleavage; in vitro, sequencing
In short: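 CPEB3 self-cleaving ribozyme mutant libraries were made by rounds of error-prone PCR, barcoded, and transcribed in vitro with T7 RNA polymerase for 5 hours at 37°C. Cleavage occurred during transcription and a 15 min DNase I step before EDTA stop. RNAs were reverse transcribed with template switching and Illumina-sequenced, with DNA sequencing mapping barcodes to variants. Relative activity is the variant's cleaved/total read fraction divided by wild type's (minimum 5 reads), averaged across three batches.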
In the case of UAACAGGGGGCCACAGCAGAAGCGUUCACGUCGCAGCCCCUGCCAGAUUCUGGUGAACCUGCGGAUUCCGCUGUAUACCUC [U43C U58C A64G U69C U78C], the self-cleavage is reported as 0.05. Variant UAACAGGGGGCCACAGCAGAAGCGUUCACGUCGCAGCCCCUGCCAGAUUCUGGUGAACCUGCGAAUUCUGCUGUAUAUCCC [U43C U58C U80C] has a self-cleavage of 0.29. With UAACAGGGGGCCACAGCAGAAGCGUUCACGUCGCAGCCCCUGCCAGAUUCUGGUGAAGCAGCGAAUCCUGCUGUAUAUCUC [U43C U58G U60A U67C] the self-cleavage was 0.07. Work on UAACAGGGGGCCACAGCAGAAGCGUUCACGUCGCAGCCCCUGCCAGAUUCUGGUGAAUCAGCGAAUUCUGCUGUAUGUCUC [U43C U60A A77G] yielded a self-cleavage of 0.12. UAACAGGGGGCCACAGCAGAAGCGUUCACGUCGCAGCCCCUGCCAGAUUCUGGUGAAUCAGCGAAAUCUGCUGUAUAUCUC [U43C U60A U66A] showed a self-cleavage of 0.1. For UAACAGGGGGCCACAGCAGAAGCGUUCACGUCGCAGCCCCUGCCAGAUUCUGGUGAAUCAGCGAAUUCUGCUGUAUAACUC [U43C U60A U78A], the self-cleavage was 0.23. UAACAGGGGGCCACAGCAGAAGCGUUCACGUCGCAGCCCCUGCCAGAUUCUGGUGAAUCAGCGAAUUCUGCUGUAUAUCAC [U43C U60A U80A] gave a self-cleavage of 0.44. UAACAGGGGGCCACAGCAGAAGCGUUCACGUCGCAGCCCCUGCCAGAUUCUGGUGAAUCCGCGAAUUCUGCUGUAUAUCUG [U43C U60C C81G] gave a self-cleavage of 0.27. Variant UAACAGGGGGCCACAGCAGAAGCGUUCACGUCGCAGCCCCUGCCAGAUUCUGGUGAAUCCGCGAAUUCAGCUGUAUAUCUC [U43C U60C U69A] has a self-cleavage of 0.02. Work on UAACAGGGGGCCACAGCAGAAGCGUUCACGUCGCAGCCCCUGCCAGAUUCUGGUGAAUCCGCGAAUUCUGCUGCAUAUCUC [U43C U60C U74C] yielded a self-cleavage of 0.25. UAACAGGGGGCCACAGCAGAAGCGUUCACGUCGCAGCCCCUGCCAGAUUCUGGUGAAUCCGCGAAUUCUGCUGUAUAUCCC [U43C U60C U80C] gave a self-cleavage of 0.25. In the case of UAACAGGGGGCCACAGCAGAAGCGUUCACGUCGCAGCCCCUGCCAGAUUCUGGUGAAUCGGCGAAUUCUGCUGUUUAUCUC [U43C U60G A75U], the self-cleavage is reported as 0.18. UAACAGGGGGCCACAGCAGAAGCGUUCACGUCGCAGCCCCUGCCAGAUUCUGGUGAAUCUGCGAAUACUGCUGUGUAUCUC [U43C U67A A75G] gave a self-cleavage of 0.1. UAACAGGGGGCCACAGCAGAAGCGUUCACGUCGCAGCCCCUGCCAGAUUCUGGUGAAUCUGCGAAUACUGCUGAGUAUCUC [U43C U67A U74A A75G] gave a self-cleavage of 0.07. Variant UAACAGGGGGCCACAGCAGAAGCGUUCACGUCGCAGCCCCUGCCAGAUUCUGGUGAAUCUGCGAAUUCCGCUGUAUACCUC [U43C U69C U78C] has a self-cleavage of 0.43. Variant UAACAGGGGGCCACAGCAGAAGCGUUCACGUCGCAGCCCCUGGCAGAUUCUGGUGUAUCUGCGAAUACUGCUGUAUAUCCC [U43G A56U U67A U80C] has a self-cleavage of 0.15. Variant UAACAGGGGGCCACAGCAGAAGCGUUCACGUCGCAGCCCCUGGUAGAUUCUGGUGAAUCUGCGAAUUCUGCUGUAUACCUC [U43G C44U U78C] has a self-cleavage of 0.27. Work on UAACAGGGGGCCACAGCAGAAGCGUUCACGUCGCAGCCCCUGGCAGAUUUUGGUGAAUCUGCGAAUUCUGCUGGAUAUCUC [U43G C50U U74G] yielded a self-cleavage of 0.12. UAACAGGGGGCCACAGCAGAAGCGUUCACGUCGCAGCCCCUGGCAAAUCCUGGUGAAUCUGCGAAUUCUGCUGUAUGUCUC [U43G G46A U49C A77G] showed a self-cleavage of 0.14. UAACAGGGGGCCACAGCAGAAGCGUUCACGUCGCAGCCCCUGGCAGAUUCAGGUGAAUCCGCGAAUUCCGCUGUAUAUCUC [U43G U51A U60C U69C] showed a self-cleavage of 0.09. Variant UAACAGGGGGCCACAGCAGAAGCGUUCACGUCGCAGCCCCUGGCAGAUUCUGGCGAAUCUGCGGAUUCUGCUGUCUAUCUC [U43G U54C A64G A75C] has a self-cleavage of 0.12. Work on UAACAGGGGGCCACAGCAGAAGCGUUCACGUCGCAGCCCCUGGCAGAUUCUGGUGAACCUGCGGAUUCUGCUGUAUAUCUC [U43G U58C A64G] yielded a self-cleavage of 0.18. Work on UAACAGGGGGCCACAGCAGAAGCGUUCACGUCGCAGCCCCUGUAGGAACCUGGUGAAUCUGCGAAUUCUGCUGUAUAUCUC [C44A A45G U48A U49C] yielded a self-cleavage of 0.23. Variant UAACAGGGGGCCACAGCAGAAGCGUUCACGUCGCAGCCCCUGUAGGAUUCGGGUGAACCUGCGAAUUCUGCUGUAUAUCAC [C44A A45G U51G U58C U80A] has a self-cleavage of 0. UAACAGGGGGCCACAGCAGAAGCGUUCACGUCGCAGCCCCUGUAAGAUUCUGGUGGAUCUGCGAAUUCUGCUGUAUAUUUC [C44A A56G C79U] gave a self-cleavage of 0.34. UAACAGGGGGCCACAGCAGAAGCGUUCACGUCGCAGCCCCUGUAAGACUCCGGUGAAUCUGCGAAUUCUGCUGUAUAUCUC [C44A U48C U51C] showed a self-cleavage of 0.05. In the case of UAACAGGGGGCCACAGCAGAAGCGUUCACGUCGCAGCCCCUGUGAGAUUCUGGUGAGUCUGCGAAUUAUGCUGUAUAUCUC [C44G A57G C68A], the self-cleavage is reported as 0.24. In the case of UAACAGGGGGCCACAGCAGAAGCGUUCACGUCGCAGCCCCUGUUAGGUUCUGGUGACUCUGCAAAUUCCGCUGUAUAUCUC [C44U A47G A57C G63A U69C], the self-cleavage is reported as 0.15. Work on UAACAGGGGGCCACAGCAGAAGCGUUCACGUCGCAGCCCCUGUUAGAUUCUGGUGGAUCUGCGAAUUCCGCUGUACAUCUC [C44U A56G U69C U76C] yielded a self-cleavage of 0.18. In the case of UAACAGGGGGCCACAGCAGAAGCGUUCACGUCGCAGCCCCUGUUAGAUUCUGGUGAAUCUGCGAGUCCUGCUGUAUAUCUC [C44U A65G U67C], the self-cleavage is reported as 0.14. UAACAGGGGGCCACAGCAGAAGCGUUCACGUCGCAGCCCCUGUUAGAUUCUGGUGAAUCUGCGAUUUCUGCUGUAUACCUC [C44U A65U U78C] showed a self-cleavage of 0.14. UAACAGGGGGCCACAGCAGAAGCGUUCACGUCGCAGCCCCUGUUAGACCCUGGUGAAUCUGCGAACUCUGCUGUAUACCUC [C44U U48C U49C U66C U78C] gave a self-cleavage of 0.07. Variant UAACAGGGGGCCACAGCAGAAGCGUUCACGUCGCAGCCCCUGUUAGAUUCAGGUGAAUCUGCGAAUUCUGCUGUAUAUCCC [C44U U51A U80C] has a self-cleavage of 0.15. For UAACAGGGGGCCACAGCAGAAGCGUUCACGUCGCAGCCCCUGUCCGGUUCUGGCGAAUCUGCGAAUUCUGCUGUAUACCUC [A45C A47G U54C U78C], the self-cleavage was 0.45.
